{"source": "PubChem BioAssay AID1347073", "about": "(National Center for Advancing Translational Sciences (NCATS), 2019)", "note": "Screen size: about 45,000 compounds; about 200 (0.44%) were called active. Another 7% or so got no clear call; they are omitted. The call rests on the fitted dose curve; in most records, active means well fitted activation curve with a large enough effect; inconclusive means small, poorly fitted or top-dose-only effect; inactive means no such curve, though single readings can be large or run the other way. This is one part of the list.", "data": [{"test": "qHTS of TDP-43 Inhibitors: NCGC Sytravon Library Screen; further: 0% is about no effect; nearly all actives have a fitted effect of over 55% in size", "details": "yeast TDP-43 toxicity rescue, BacTiter-Glo growth, 24 h; series mostly up to 46.1 µM; growth rescue (activation): at the top concentration", "summary_of_the_method": "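TDP-43-expressing yeast, pregrown in raffinose, seeded at OD600 0.02 in galactose medium with compound for 24 hr at 30 deg C. Growth read by BacTiter-Glo luminescence, so rescue of toxicity appears as activation.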", "values": [{"molecule": "O=C(NC(=S)Nc1ccccc1N1CCCC1)c1ccccc1[N+](=O)[O-]", "growth rescue (activation)": "inactive: 27.9%"}, {"molecule": "O=C(O)CC(C(=O)O)c1cn(Cc2ccccc2)c2ccccc12", "note": "(stereo not given)", "growth rescue (activation)": "inactive: 19.1%"}, {"molecule": "O=C(O)c1cccc(NC(=S)NC(=O)c2ccc(-c3ccccc3)cc2)c1", "growth rescue (activation)": "inactive: -1.35%"}, {"molecule": "O=C(NCc1nnc2n1CCCCC2)c1ccc(Cl)cc1Cl", "growth rescue (activation)": "inactive: 10.1%"}, {"molecule": "CC/C(C)=N\\NC(=O)CNC(=O)c1ccc(Cl)cc1Cl", "growth rescue (activation)": "inactive: 7.13%"}, {"molecule": "Cn1c(CSCc2ccc(Cl)cc2)n[nH]c1=S", "growth rescue (activation)": "inactive: -4.26%"}, {"molecule": "O=C(c1cccc2ccccc12)C1CCCN(C(=O)CCCn2cncn2)C1", "note": "(stereo not given)", "growth rescue (activation)": "inactive: 2.48%"}, {"molecule": "COc1cccc(CN(C)C(=O)c2ccc(COc3ccc(Cl)cc3)cc2)c1OC", "growth rescue (activation)": "inactive: 29.4%"}, {"molecule": "CCCOc1ccccc1C1NC(=O)NC(C)=C1C(=O)OCCOCC", "note": "(stereo not given)", "growth rescue (activation)": "inactive: -7.61%"}, {"molecule": "CCC(C)(C)C(=O)Nc1cc([N+](=O)[O-])ccc1Cl", "growth rescue (activation)": "inactive: 3.99%"}, {"molecule": "CCCn1c2ccccc2c2nnc(SCc3[nH]c(=O)[nH]c3C(=O)CCCCC(=O)OCC)nc21", "growth rescue (activation)": "inactive: 28.3%"}, {"molecule": "CN1CCc2nc(SC(C(=O)O)c3ccccc3)c(C#N)c(-c3cccs3)c2C1", "note": "(stereo not given)", "growth rescue (activation)": "inactive: -8.27%"}, {"molecule": "N#Cc1cccc(S(=O)(=O)NCC(=O)NCCCc2ccccc2)c1", "growth rescue (activation)": "inactive: 7.28%"}, {"molecule": "COc1ccc(N2CC(C(=O)NC3CCSC3=O)CC2=O)cc1", "note": "(stereo not given)", "growth rescue (activation)": "inactive: 14.6%"}, {"molecule": "CC(=O)c1cn(-c2ccc(Cl)cc2)c(=O)n(Cc2ccc(Br)cc2)c1=O", "growth rescue (activation)": "inactive: -13.5%"}, {"molecule": "COc1ccc(C)cc1NC(=O)c1ccc2c(SCC(=O)O)c3c(nc2c1)CCCC3", "growth rescue (activation)": "inactive: -5.03%"}, {"molecule": "COc1cccc(NC(=O)CN(C)C(=O)Cc2ccc(Cl)cc2Cl)c1", "growth rescue (activation)": "inactive: 5.55%"}, {"molecule": "Cc1cccc(C(=O)N[C@H](C(=O)OCc2cc(=O)n3c(n2)sc2ccccc23)C(C)C)c1", "growth rescue (activation)": "inactive: -9.06%"}, {"molecule": "O=c1oc2ccccc2cc1-c1nc2c(s1)CCc1ccccc1-2", "growth rescue (activation)": "inactive: 19.9%"}, {"molecule": "CCOC(=O)C1(CCCc2ccccc2)CCN(C(=O)c2cc(C)nc(C)n2)CC1", "growth rescue (activation)": "inactive: 18.6%"}, {"molecule": "CC(C)CCNC(=O)CN(Cc1ccccc1Cl)C(=O)CCC(=O)Nc1ccccn1", "growth rescue (activation)": "inactive: -1.57%"}, {"molecule": "O=S(=O)(Cc1ccc(Cl)cc1)c1ncc(CO)n1Cc1ccccc1", "growth rescue (activation)": "inactive: 7.43%"}, {"molecule": "CC1CCCC(C)N1C(=O)COC(=O)c1cc(Br)ccc1Cl", "note": "(stereo not given)", "growth rescue (activation)": "inactive: 17.7%"}, {"molecule": "CC(=O)c1ccc(S(=O)(=O)N2CCN(C)CC2)cc1", "growth rescue (activation)": "inactive: 11.1%"}, {"molecule": "CCC(CC)C(=O)N(C)c1c(C)nc2c(OCc3ccccc3C)cccn12", "growth rescue (activation)": "inactive: -13.9%"}, {"molecule": "CCCS(=O)(=O)NC(=O)C1(C)CCCN(C(=O)c2c(C)noc2C)C1", "note": "(stereo not given)", "growth rescue (activation)": "inactive: -9.72%"}, {"molecule": "COc1ccc(C(=O)O)cc1S(=O)(=O)N(C)C", "growth rescue (activation)": "inactive: -3.24%"}, {"molecule": "CCCCN(C=O)c1c(CC)nc2c(OCc3cc(Cl)cc(Cl)c3)cccn12", "growth rescue (activation)": "inactive: -11.7%"}, {"molecule": "CCNC(=O)C1CCCN(Cc2cc(-c3ccccc3)on2)CC1", "note": "(stereo not given)", "growth rescue (activation)": "inactive: 4.09%"}, {"molecule": "O=C(COc1cccnc1[N+](=O)[O-])Nc1ccc(F)cc1", "growth rescue (activation)": "inactive: 18%"}]}]}
